Measured values reported in the supplement of paper PMC12217912.
Some of the results follow. The full chains were built here from the parent and the listed change. Inactive controls read about 0.05.

B1: TEV protease; numbered along this chain (parent)
chain: MGESLFKGPRDYNPISSSICHLTNESDGHTTSLYGIGFGPFIITNKHLFRRNNGTLVVQSLHGVFKVKDTTTLQQHLVDGRDMIIIRMPKDFPPFPQKLKFREPQREERICLVTTNFQTKSMSSMVSDTSCTFPSGDGIFWKHWIQTKDGQCGSPLVSTRDGFIVGIHSASNFTNTNNYFTSVPKNFMELLTNQEAQQWVSGWRLNADSVLWGGHKVFMVKPEEPFQPVKEATQL

Variants of: B1
Assay: raw area under fraction-flipped curve 0-4 h after induction (AUC4h, not background-subtracted), DNA-recorder readout of cleavage of the substrate (dimensionless); higher = more cleavage of the substrate by the protease variant
Details: temperature: 34 °C; time window: 0-4 h after rhamnose induction
Procedure: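 In vivo DNA recorder in E. coli TOP10(DE3) ΔrhaA at 34 °C. Each TEVp single-site mutant (parent TEVp 0) is paired with a single-site variant of the 7-mer TEVs (canonical ENLYFQ|S). The substrate sits between flexible linkers in a Bxb1-sfGFP-TEVs-SsrA fusion, so cleavage stabilises Bxb1 and speeds flipping of a recombination array, read by NGS. The value is the raw area under the fraction-flipped curve over 0-4 h after rhamnose induction (AUC4h), with ≥20 reads per time point. It is not background-subtracted; inactive controls average about 0.047.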
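Further: Bxb1 expression induced with 0.2% (w/v) L-rhamnose at OD600 near 0.5, cultures sampled hourly, flipped fraction per protease–substrate barcode pair counted by paired-end Illumina sequencing.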

Variant | area with substrate ENLYFQA | area with substrate ENLYFQC | area with substrate ENLYFQD | area with substrate ENLYFQG | area with substrate ENLYFQH | area with substrate ENLYFQI | area with substrate ENLYFQL | area with substrate ENLYFQN | area with substrate ENLYFQP | area with substrate ENLYFQR | area with substrate ENLYFQS | area with substrate ENLYFQT | area with substrate ENLYFQV | area with substrate ENLYFQW | area with substrate ENLYFQY | area with substrate ENLYFQE | area with substrate ENLYFQK | area with substrate ENLYFQM | area with substrate ENLYFQQ | area with substrate ENLYFQF
K46G | 0.0814 | 0.0976 | 0.0558 | 0.0898 | 0.0696 | 0.0521 | 0.0711 | 0.0591 | 0.0431 | 0.0552 | 0.0867 | 0.0609 | 0.0443 | 0.0672 | 0.0643 |  |  |  |  | 
S26I | 0.0783 | 0.0734 | 0.0678 | 0.106 | 0.06 | 0.048 | 0.0614 | 0.0625 |  |  | 0.0747 | 0.0546 |  | 0.0606 | 0.0415 | 0.0517 | 0.0507 | 0.0701 |  | 
D91G | 0.095 | 0.145 | 0.0815 | 0.0979 |  |  | 0.042 | 0.0953 | 0.0615 | 0.0598 | 0.101 | 0.0609 |  | 0.0662 |  |  | 0.0641 | 0.0916 | 0.0909 | 
E195W | 0.0846 |  |  |  | 0.0725 |  |  |  |  | 0.0633 | 0.0856 | 0.0754 |  |  |  |  | 0.0572 | 0.0693 |  | 
E108R | 0.0608 |  | 0.0526 | 0.0413 | 0.0586 | 0.0558 | 0.0507 |  | 0.0423 |  | 0.0606 | 0.0523 | 0.0497 |  |  |  | 0.0595 | 0.0575 | 0.0512 | 
R204Y | 0.106 | 0.123 | 0.0648 | 0.108 | 0.0932 | 0.0599 | 0.0662 | 0.0927 |  | 0.0585 | 0.115 | 0.084 | 0.0703 | 0.106 | 0.0851 |  | 0.0668 | 0.0964 | 0.0698 | 0.0921
L5S | 0.115 |  |  | 0.0901 |  | 0.062 |  | 0.0666 |  | 0.034 | 0.113 | 0.0692 | 0.067 |  | 0.105 |  | 0.0637 | 0.051 |  | 
T70C | 0.0672 | 0.0713 | 0.0807 | 0.103 | 0.0742 | 0.0644 | 0.0634 |  | 0.0556 | 0.0641 | 0.0803 | 0.0856 |  | 0.0674 | 0.0492 | 0.0621 | 0.0577 | 0.0559 |  | 
E195I | 0.0835 |  |  |  |  |  | 0.0387 | 0.0679 |  | 0.0609 | 0.085 | 0.0724 |  | 0.0572 |  |  | 0.0428 |  |  | 0.0872
V58Y | 0.058 |  |  |  |  | 0.0486 | 0.0715 | 0.0073 |  | 0.0579 | 0.066 | 0.0494 |  | 0.0494 | 0.0492 |  |  | 0.0677 |  | 
F101M | 0.121 | 0.109 | 0.0714 | 0.0898 |  |  | 0.0646 | 0.0793 | 0.0564 | 0.0484 | 0.0943 | 0.0515 | 0.0672 |  | 0.0717 |  | 0.0608 |  |  | 
P9E | 0.0643 | 0.0797 |  |  | 0.0605 |  | 0.0601 | 0.09 | 0.0539 | 0.0597 | 0.0817 | 0.0603 |  |  | 0.0597 |  | 0.077 |  |  | 
P134M | 0.111 | 0.106 |  |  | 0.0755 | 0.0563 |  |  |  | 0.0624 | 0.0942 | 0.0661 | 0.0651 | 0.0722 |  |  | 0.0727 | 0.0894 |  | 
D137W | 0.0779 |  | 0.0687 | 0.0796 | 0.0653 | 0.0705 | 0.0495 | 0.0589 |  |  | 0.0957 | 0.0787 | 0.0504 | 0.0524 | 0.056 |  | 0.0441 |  |  | 
K7M | 0.1 |  |  | 0.103 |  |  | 0.0362 | 0.076 |  | 0.064 | 0.0954 | 0.111 | 0.0613 | 0.0654 |  |  |  | 0.0561 |  | 
S201M | 0.0835 | 0.11 | 0.0632 | 0.14 |  |  |  | 0.0809 |  | 0.0651 | 0.0968 |  |  |  | 0.0535 |  | 0.0678 |  | 0.0677 | 
S169L | 0.0688 | 0.0538 |  | 0.0538 | 0.0665 | 0.0645 | 0.0592 |  |  |  | 0.0593 | 0.0614 |  | 0.0485 | 0.061 |  | 0.0571 |  |  | 
D149W | 0.0725 | 0.103 |  |  | 0.0704 |  | 0.0652 | 0.0561 |  | 0.0301 | 0.0752 | 0.0568 | 0.0614 |  |  |  | 0.0483 | 0.0659 |  | 
Y179G | 0.0565 |  |  | 0.0651 |  |  |  |  | 0.0524 |  | 0.0536 |  |  |  |  |  | 0.0561 |  |  | 
G213I | 0.0455 | 0.0578 | 0.0611 | 0.087 | 0.049 | 0.0543 |  | 0.0737 |  | 0.0583 | 0.061 | 0.0627 | 0.0648 | 0.0603 | 0.0644 |  | 0.0563 |  |  | 
T114S | 0.107 | 0.133 | 0.0755 |  | 0.0848 | 0.058 | 0.0722 |  | 0.0828 | 0.0652 | 0.111 | 0.0741 | 0.0755 |  |  |  | 0.0709 | 0.0634 |  | 
V157C | 0.0728 | 0.0985 | 0.0689 |  | 0.0721 | 0.0757 | 0.0773 |  |  | 0.0612 | 0.102 | 0.0706 |  | 0.059 | 0.0931 | 0.0936 | 0.0731 | 0.0751 |  | 
L61Y | 0.0753 | 0.107 | 0.0609 | 0.0949 | 0.0745 |  | 0.0608 |  | 0.0616 |  | 0.0996 |  |  | 0.049 |  |  | 0.0568 | 0.0938 |  | 0.0593
P94L | 0.101 | 0.124 |  |  |  |  | 0.0531 | 0.0871 |  | 0.0569 | 0.108 |  |  | 0.0678 |  |  |  |  |  | 0.105
F41E | 0.0518 |  |  | 0.0533 |  | 0.0557 | 0.0425 | 0.0593 |  |  | 0.0565 | 0.0571 |  | 0.0527 |  |  |  |  |  | 
S169H | 0.0396 | 0.0531 |  | 0.0518 |  | 0.0597 | 0.0635 | 0.0246 | 0.0462 | 0.0651 | 0.0552 |  |  | 0.0571 | 0.0427 |  | 0.0646 | 0.0509 |  | 0.0488
P14F | 0.0994 | 0.0907 | 0.085 |  | 0.0802 | 0.0559 | 0.0638 | 0.067 | 0.0754 | 0.0631 | 0.0907 | 0.0694 | 0.0668 | 0.0676 | 0.0727 |  | 0.0547 |  | 0.0885 | 
H143Y | 0.14 |  |  |  |  | 0.0559 | 0.0571 |  | 0.0467 | 0.0471 | 0.128 | 0.0544 | 0.0644 |  |  |  | 0.0591 |  | 0.097 | 
S130A | 0.106 | 0.0953 |  | 0.0836 | 0.0679 | 0.0623 | 0.0668 | 0.0713 | 0.0569 | 0.0768 | 0.095 | 0.072 | 0.07 | 0.0586 | 0.0719 |  | 0.0758 | 0.0989 |  | 
